Measurements: US11479587B2, “Cationic intrinsically disordered antimicrobial peptides” (priority 2016, dated 2022)
Values after ≈ are worked out from the molar mass of the structure shown. Values joined by “and” are separate entries in the source; they are usually repeats but may differ in a detail not shown here. Equal entries are not always repeated. Where two headings read alike, the source gives them in different places. Part of at least one peptide drawing is inferred or uncertain, most often the ends. Some compounds share one wording; it may come from a single statement. Non-standard residues stand in square brackets, D forms with d. Residues, ends and D or L forms follow the SMILES beside them. No end group written: not given here. *: point of attachment. Palmitoyl = CCCCCCCCCCCCCCCC(=O)*; Dap = NC[C@H](N)C(=O)O

How the values were obtained:
C. albicans ATCC 928 = conditions: standard conditions at pH 7.4; activity at concentration <32 pg/ml
[1] = system: Candida albicans ATCC 24433; experiment: CFU-assay, Candida albicans-cidal activity; assay type: cell-based; conditions: pH 7.3, 1% TSB
Protocol: Thus, within the present invention, the antimicrobial activity is generally measured in nutrient deficient 10 mM sodium phosphate buffer pH 5.5, containing 0.25% glucose, using the CFU-assay according to Steinberg and Lehrer, 1997 (supra), unless otherwise indicated. The CFU-assay allows determination of the minimal bactericidal concentration (MBC, e.g., MBC90 and MBC100; i.e. the concentration of compound required to achieve a specified reduction in bacterial cell number (microbial death or killing)). […]
HR 1-17 affects C. albicans ATCC 24433 with highest activity at pH 5.5 in the absence of TSB in the medium (see Tables 12, 24). […] Furthermore, the substitution of any of the Arg residues by Gly leads to a dramatic reduction or loss of candidacidal activity (see Table 24).

[2] = system: Burkholderia cepacia ATCC 25416; experiment: CFU-assay, Burkholderia cepacia-cidal activity; assay type: cell-based; conditions: pH 7.3, 1% TSB
[3] = system: Prevotella oralis ATCC 33321; experiment: CFU-assay, antimicrobial activity spectrum; assay type: cell-based; conditions: pH 7.3, 1% TSB
[4] = system: Clostridium perfringens ATCC 13124; assay type: cell-based
[5] = system: Peptostreptococcus magnus ATCC 15794; experiment: CFU-assay, antimicrobial activity spectrum; assay type: cell-based; conditions: pH 7.3, 1% TSB

CCCCCCCCCCCCCCCC(=O)N[C@@H](CO)C(=O)N[C@@H](Cc1c[nH]cn1)C(=O)N[C@@H](Cc1c[nH]cn1)C(=O)N[C@@H](CCCNC(=N)N)C(=O)N[C@@H](Cc1c[nH]cn1)C(=O)N[C@@H](Cc1ccccc1)C(=O)N[C@@H](CCCNC(=N)N)C(=O)N[C@@H](CO)C(=O)N[C@@H](Cc1c[nH]cn1)C(=O)N[C@@H](CCC(N)=O)C(=O)N[C@@H](CS)C(=O)N[C@@H](CCCNC(=N)N)C(=O)N[C@@H](CCCNC(=N)N)C(=O)O [Pal-LCE3C55-67] (HELM PEPTIDE1{[CCCCCCCCCCCCCCCC(=O)[*:2]].S.H.H.R.H.F.R.S.H.Q.C.R.R}$$$$V2.0)
Antifungal activity, C. albcans ATCC90028 (C. albicans ATCC 928): A (A-active)

CCCCCCCCCCCCCCCC(=O)NCC(=O)N[C@@H](CCCNC(=N)N)C(=O)N[C@@H](CCCNC(=N)N)C(=O)NCC(=O)NCC(=O)N[C@@H](CCCNC(=N)N)C(=O)NCC(=O)NCC(=O)N[C@@H](CCCNC(=N)N)C(=O)NCC(=O)N[C@@H](CCCNC(=N)N)C(=O)NCC(=O)N[C@@H](CCCNC(=N)N)C(=O)O [Pal-GR13] (HELM PEPTIDE1{[CCCCCCCCCCCCCCCC(=O)[*:2]].G.R.R.G.G.R.G.G.R.G.R.G.R}$$$$V2.0)
MBC100 [1]: 18.75 µg/mL (≈ 11.8 µM)
MBC90 [2]: 18.75 µg/mL (≈ 11.8 µM)
MBC100 [2]: 18.75 µg/mL (≈ 11.8 µM)
MBC100 [3]: 18.75 µg/mL (≈ 11.8 µM)
MBC90 ([4]; pH 5.5): 37.5 µg/mL (≈ 23.5 µM)
MBC100 ([4]; pH 5.5): 75 µg/mL (≈ 47.1 µM)
MBC100 ([4]; pH 7.3): 37.5 µg/mL and 18.75 µg/mL
MBC100 [5]: 37.5 µg/mL (≈ 23.5 µM)
Antifungal activity, C. albcans ATCC90028 (C. albicans ATCC 928): A (A-active)

SHHRPRLFHRRRH [LCE2B74-86]
Antifungal activity, C. albcans ATCC90028 (C. albicans ATCC 928): I (I-inactive)

CCCCCCCCCCCCCCCC(=O)NCC(=O)N[C@@H](CCCNC(=N)N)C(=O)N[C@@H](CCCNC(=N)N)C(=O)NCC(=O)NCC(=O)N[C@@H](CCCNC(=N)N)C(=O)NCC(=O)NCC(=O)N[C@@H](CCCNC(=N)N)C(=O)O [Pal-GR9] (HELM PEPTIDE1{[CCCCCCCCCCCCCCCC(=O)[*:2]].G.R.R.G.G.R.G.G.R}$$$$V2.0)
Antifungal activity, C. albcans ATCC90028 (C. albicans ATCC 928): A (A-active)

N=C(N)NCCC[C@H](NC(=O)[C@H](CC(=O)O)NC(=O)[C@H](CS)NC(=O)[C@H](CO)NC(=O)[C@H](CC(N)=O)NC(=O)[C@H](CO)NC(=O)[C@H](CCCNC(=N)N)NC(=O)[C@H](CCC(N)=O)NC(=O)[C@H](CCCNC(=N)N)NC(=O)[C@H](CCCNC(=N)N)NC(=O)[C@H](CS)NC(=O)[C@H](CCC(N)=O)NC(=O)[C@H](Cc1c[nH]cn1)NC(=O)[C@H](CO)NC(=O)[C@H](CCCNC(=N)N)NC(=O)[C@H](Cc1ccccc1)NC(=O)[C@H](Cc1c[nH]cn1)NC(=O)[C@H](CCCNC(=N)N)NC(=O)[C@H](Cc1c[nH]cn1)NC(=O)[C@H](Cc1c[nH]cn1)NC(=O)[C@@H](N)CO)C(=O)O [LCE3C55-75] (H-SHHRHFRSHQCRRQRSNSCDR-OH)
Antifungal activity, C. albcans ATCC90028 (C. albicans ATCC 928): I (I-inactive)

CCCCCCCCCCCCCCCC(=O)NCC(=O)N[C@@H](CN)C(=O)NCC(=O)N[C@@H](CN)C(=O)O [Pal-GDap4, Pal-GDapGDap] (Palmitoyl-G[Dap]G[Dap]-OH)
Antifungal activity, C. albcans ATCC90028 (C. albicans ATCC 928): A (A-active)

CCCCCCCCCCCCCC(=O)NCC(=O)N[C@@H](CCCNC(=N)N)C(=O)N[C@@H](Cc1c[nH]cn1)C(=O)NCC(=O)N[C@@H](CO)C(=O)NCC(=O)N[C@@H](CC(C)C)C(=O)NCC(=O)N[C@@H](Cc1c[nH]cn1)C(=O)N[C@@H](CO)C(=O)N[C@@H](CO)C(=O)N[C@@H](CO)C(=O)N[C@@H](Cc1c[nH]cn1)C(=O)NCC(=O)N[C@@H](CCC(N)=O)C(=O)N[C@@H](Cc1c[nH]cn1)C(=O)NCC(=O)N[C@@H](CO)C(=O)NCC(=O)N[C@@H](CO)C(=O)NCC(=O)N[C@@H](CCCNC(=N)N)C(=O)O [Myr-HR 1-18] (HELM PEPTIDE1{[CCCCCCCCCCCCCC(=O)[*:2]].G.R.H.G.S.G.L.G.H.S.S.S.H.G.Q.H.G.S.G.S.G.R}$$$$V2.0)
MBC90 ([4]; pH 7.3): 75 µg/mL (≈ 32.5 µM)
MBC100 ([4]; pH 7.3): 150 µg/mL (≈ 64.9 µM)
